The data set concerns the molecule itself. Kind of data set: […], in 25 mM HEPES pH 7.15, 150 mM NaCl; […].

B1: pilus shaft from the F-like plasmid pED208 (natural protein)
chain: TDLLAGGKDDVKATFGADSFVMMCIIIAELIVGVAMYIRTKNLLILLGLVVVIVFTTVGLTFIK
notes: also called conjugative pilus; conjugation pilus
As to B1, the binding result is reported as “binds”.

Source of the values: article PMC12658005 (Communications Biology, 2025).
